We go through 31 molecules from PMC9911399, “Two distinct binding modes provide the RNA-binding protein RbFox with extraordinary sequence specificity”.

Positions count from the first letter of the chain named. The list shows a part of the results.

To fix the notation:
T1: RBFOX1 RRM RbFoxmut (Fox-RRM*) (Homo sapiens, UniProt Q9NWB1 109-208, R118D;E147R;N151S;E152T)
T1 sequence: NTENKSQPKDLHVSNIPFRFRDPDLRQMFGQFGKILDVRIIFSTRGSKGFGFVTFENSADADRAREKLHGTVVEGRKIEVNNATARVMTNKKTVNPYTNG

B1: ACUUGAG (DNA:RNA)
RNA: GGGAGACCGGAAUUCAGAUUGUCCACUUGAGUUAAAUCCCGUCGUAGCCACCA
DNA 1: CAATCTGAATTCCGGTCTCCC
DNA 2: TGGTGGCTACGACGGGATT
B2: GGCACGC (DNA:RNA)
RNA: GGGAGACCGGAAUUCAGAUUGUCCGGCACGCUUAAAUCCCGUCGUAGCCACCA
DNA 1: CAATCTGAATTCCGGTCTCCC
DNA 2: TGGTGGCTACGACGGGATT
B3: UACGCCC (DNA:RNA)
RNA: B2 RNA with G25U, G26A, A28G, G30C
DNA 1: CAATCTGAATTCCGGTCTCCC
DNA 2: TGGTGGCTACGACGGGATT
B4: UUCUGCU (DNA:RNA)
RNA: B1 RNA with A25U, C26U, U27C, A30C, G31U
DNA 1: CAATCTGAATTCCGGTCTCCC
DNA 2: TGGTGGCTACGACGGGATT
B5: UCUUACA (DNA:RNA)
RNA: B1 RNA with A25U, G29A, A30C, G31A
DNA 1: CAATCTGAATTCCGGTCTCCC
DNA 2: TGGTGGCTACGACGGGATT
B6: GGGAGGC (DNA:RNA)
RNA: B2 RNA with C27G, C29G
DNA 1: CAATCTGAATTCCGGTCTCCC
DNA 2: TGGTGGCTACGACGGGATT
B7: UGAACAA (DNA:RNA)
RNA: B2 RNA with G25U, C27A, G30A, C31A
DNA 1: CAATCTGAATTCCGGTCTCCC
DNA 2: TGGTGGCTACGACGGGATT
B8: CUUAGCC (DNA:RNA)
RNA: B1 RNA with A25C, C26U, U28A, A30C, G31C
DNA 1: CAATCTGAATTCCGGTCTCCC
DNA 2: TGGTGGCTACGACGGGATT
B9: AUAGAAC (DNA:RNA)
RNA: B1 RNA with C26U, U27A, U28G, G29A, G31C
DNA 1: CAATCTGAATTCCGGTCTCCC
DNA 2: TGGTGGCTACGACGGGATT
B10: CGCGUAG (DNA:RNA)
RNA: B1 RNA with A25C, C26G, U27C, U28G, G29U
DNA 1: CAATCTGAATTCCGGTCTCCC
DNA 2: TGGTGGCTACGACGGGATT
B11: GGGCAUC (DNA:RNA)
RNA: B2 RNA with C27G, A28C, C29A, G30U
DNA 1: CAATCTGAATTCCGGTCTCCC
DNA 2: TGGTGGCTACGACGGGATT
B12: UUAGAAU (DNA:RNA)
RNA: B1 RNA with A25U, C26U, U27A, U28G, G29A, G31U
DNA 1: CAATCTGAATTCCGGTCTCCC
DNA 2: TGGTGGCTACGACGGGATT
B13: CGCAAUU (DNA:RNA)
RNA: B2 RNA with G25C, C29A, G30U, C31U
DNA 1: CAATCTGAATTCCGGTCTCCC
DNA 2: TGGTGGCTACGACGGGATT
B14: CGUCUGC (DNA:RNA)
RNA: B2 RNA with G25C, C27U, A28C, C29U
DNA 1: CAATCTGAATTCCGGTCTCCC
DNA 2: TGGTGGCTACGACGGGATT
B15: UGUCCUC (DNA:RNA)
RNA: B2 RNA with G25U, C27U, A28C, G30U
DNA 1: CAATCTGAATTCCGGTCTCCC
DNA 2: TGGTGGCTACGACGGGATT
B16: AACGGAG (DNA:RNA)
RNA: B1 RNA with C26A, U27C, U28G
DNA 1: CAATCTGAATTCCGGTCTCCC
DNA 2: TGGTGGCTACGACGGGATT
B17: GGGAAUC (DNA:RNA)
RNA: B2 RNA with C27G, C29A, G30U
DNA 1: CAATCTGAATTCCGGTCTCCC
DNA 2: TGGTGGCTACGACGGGATT
B18: GUUUAAG (DNA:RNA)
RNA: B1 RNA with A25G, C26U, G29A
DNA 1: CAATCTGAATTCCGGTCTCCC
DNA 2: TGGTGGCTACGACGGGATT
B19: CUAAGCA (DNA:RNA)
RNA: B1 RNA with A25C, C26U, U27A, U28A, A30C, G31A
DNA 1: CAATCTGAATTCCGGTCTCCC
DNA 2: TGGTGGCTACGACGGGATT
B20: UCACUUA (DNA:RNA)
RNA: B1 RNA with A25U, U27A, U28C, G29U, A30U, G31A
DNA 1: CAATCTGAATTCCGGTCTCCC
DNA 2: TGGTGGCTACGACGGGATT
B21: AUGCUUG (DNA:RNA)
RNA: B1 RNA with C26U, U27G, U28C, G29U, A30U
DNA 1: CAATCTGAATTCCGGTCTCCC
DNA 2: TGGTGGCTACGACGGGATT
B22: CGAUGGU (DNA:RNA)
RNA: B1 RNA with A25C, C26G, U27A, A30G, G31U
DNA 1: CAATCTGAATTCCGGTCTCCC
DNA 2: TGGTGGCTACGACGGGATT
B23: AUCUACG (DNA:RNA)
RNA: B1 RNA with C26U, U27C, G29A, A30C
DNA 1: CAATCTGAATTCCGGTCTCCC
DNA 2: TGGTGGCTACGACGGGATT
B24: UGGAGGC (DNA:RNA)
RNA: B2 RNA with G25U, C27G, C29G
DNA 1: CAATCTGAATTCCGGTCTCCC
DNA 2: TGGTGGCTACGACGGGATT
B25: ACAAAAU (DNA:RNA)
RNA: B1 RNA with U27A, U28A, G29A, G31U
DNA 1: CAATCTGAATTCCGGTCTCCC
DNA 2: TGGTGGCTACGACGGGATT
B26: UGCGCGG (DNA:RNA)
RNA: B2 RNA with G25U, A28G, C31G
DNA 1: CAATCTGAATTCCGGTCTCCC
DNA 2: TGGTGGCTACGACGGGATT
B27: UCACCCU (DNA:RNA)
RNA: B1 RNA with A25U, U27A, U28C, G29C, A30C, G31U
DNA 1: CAATCTGAATTCCGGTCTCCC
DNA 2: TGGTGGCTACGACGGGATT
B28: GUCGUGG (DNA:RNA)
RNA: B2 RNA with G26U, A28G, C29U, C31G
DNA 1: CAATCTGAATTCCGGTCTCCC
DNA 2: TGGTGGCTACGACGGGATT
B29: AGACAUG (DNA:RNA)
RNA: B1 RNA with C26G, U27A, U28C, G29A, A30U
DNA 1: CAATCTGAATTCCGGTCTCCC
DNA 2: TGGTGGCTACGACGGGATT
B30: GCACGGG (DNA:RNA)
RNA: B1 RNA with A25G, U27A, U28C, A30G
DNA 1: CAATCTGAATTCCGGTCTCCC
DNA 2: TGGTGGCTACGACGGGATT
B31: CAUCCAU (DNA:RNA)
RNA: B1 RNA with A25C, C26A, U28C, G29C, G31U
DNA 1: CAATCTGAATTCCGGTCTCCC
DNA 2: TGGTGGCTACGACGGGATT

The test has as its target T1, RBFOX1 RRM RbFoxmut (Fox-RRM*). Kind of test: EMSA; HiTS-Eq, 1 nM pool, 10 min; buffer printed only for the single-RNA assays: 10 mM Tris pH 7.5, 150 mM NaCl, 3.4 mM EDTA, 0.001% NP-40, 30 C. The settings on record: tags: His6 N-terminal (pET28a); label: 5' 32P. The method in brief:
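Purified RbFox RRM, wild type or mutant, was incubated for 10 min in 50 µL with 1 nM of a 5′-radiolabelled RNA pool carrying 7 randomized nucleotides, whose flanks were annealed to DNA oligonucleotides, over a series of increasing protein concentrations. Unbound RNA was resolved on 8% native PAGE, cut out, reverse-transcribed, barcoded by PCR and sequenced on an Illumina HiSeq 2500. Relative association constants were derived from changes in read counts for each RNA species versus the control reaction and normalised to the cognate motif.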
For orientation: A gel shift assay detects complexes by their altered migration in electrophoresis.
For the molecule B1, the binding signal was 0.13 KA relative to UGCAUGU.

With B2, the binding signal is 0.109 KA relative to UGCAUGU.

Consider B3, for which the binding signal was 0.0936 KA relative to UGCAUGU.

For the molecule B4, the binding signal is 0.0845 KA relative to UGCAUGU.

For B5, the binding signal was 0.106 KA relative to UGCAUGU.

On to B6, for which the binding signal is 0.0783 KA relative to UGCAUGU.

Regarding B7, the binding signal was 0.047 KA relative to UGCAUGU.

Take B8: the binding signal is 0.159 KA relative to UGCAUGU.

B9: the binding signal was 0.0971 KA relative to UGCAUGU.

Consider B10, for which the binding signal is 0.122 KA relative to UGCAUGU.

Turning to B11, the binding signal was 0.396 KA relative to UGCAUGU.

For the molecule B12, the binding signal is 0.125 KA relative to UGCAUGU.

With B13, the binding signal was 0.0714 KA relative to UGCAUGU.

As to B14, the binding signal was 0.121 KA relative to UGCAUGU.

Take B15: the binding signal was 0.0783 KA relative to UGCAUGU.

With B16, the binding signal was 0.0895 KA relative to UGCAUGU.

Regarding B17, the binding signal is 0.494 KA relative to UGCAUGU.

Turning to B18, the binding signal was 0.131 KA relative to UGCAUGU.

For the molecule B19, the binding signal was 0.162 KA relative to UGCAUGU.

Regarding B20, the binding signal was 0.116 KA relative to UGCAUGU.

Take B21: the binding signal is 0.361 KA relative to UGCAUGU.

Turning to B22, the binding signal is 0.112 KA relative to UGCAUGU.

B23: the binding signal was 0.132 KA relative to UGCAUGU.

For the molecule B24, the binding signal is 0.0871 KA relative to UGCAUGU.

Turning to B25, the binding signal is 0.0817 KA relative to UGCAUGU.

Turning to B26, the binding signal was 0.111 KA relative to UGCAUGU.

For B27, the binding signal is 0.0812 KA relative to UGCAUGU.

B28: the binding signal is 0.112 KA relative to UGCAUGU.

In the case of B29, the binding signal is 0.102 KA relative to UGCAUGU.

With B30, the binding signal was 0.129 KA relative to UGCAUGU.

As for B31, the binding signal is 0.117 KA relative to UGCAUGU.
